The other results are listed elsewhere or left out. No stated cut-off is given here; in the data, active = 3.2 or more and inactive = the rest. The signal is at background level for most entries.

Drawing on the supplement of paper PMC10369915, this text covers enrichment score for 19 molecules.

Targets include SHP2 C-SH2 domain E139D; SHP2 N-SH2 domain L43F; SHP2 N-SH2 domain T42A; SHP2 N-SH2 domain T52S.
Common to all, as to test: enrichment score (SH2-bound / input frequency) (ratio); bacterial display of known human phosphotyrosine sites (pTyr-Var adds point mutants) read by sequencing; higher = stronger binding; tyrosines were phosphorylated by kinases first
Common to all, as to details: peptide library: pTyr-Var

In assay [1] the target is SHP2 C-SH2 domain wild-type.
Assay [2] has as its target SHP2 N-SH2 domain wild-type.
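Further: displayed peptides selected on beads carrying the immobilized SH2 domain, with library peptides lacking any tyrosine serving as negative controls.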

LTERSYSFVTT [ACTA1_Y200_G199S]: the enrichment score was inactive: 0.775 with SHP2 C-SH2 domain E139D; inactive: 2.01 in assay [1]; inactive: 1.34 with SHP2 N-SH2 domain L43F; inactive: 1.74 with SHP2 N-SH2 domain T42A; inactive: 0.953 with SHP2 N-SH2 domain T52S; inactive: 1.21 in assay [2].

In the case of LTERGYSFVTT [ACTA1_Y200], the enrichment score with SHP2 C-SH2 domain E139D is inactive: 0.946; in assay [1], inactive: 2.07; with SHP2 N-SH2 domain L43F it was inactive: 0.772; with SHP2 N-SH2 domain T42A, inactive: 1.48; with SHP2 N-SH2 domain T52S, inactive: 0.713; in assay [2], inactive: 0.784.

IHETTHNSIMK [ACTA1_Y281_Y281H]: the enrichment score in the assay with SHP2 C-SH2 domain E139D is inactive: 0.888; in assay [1] it was inactive: 0.693; with SHP2 N-SH2 domain L43F, inactive: 0.845; with SHP2 N-SH2 domain T42A, inactive: 0.717; with SHP2 N-SH2 domain T52S, inactive: 0.75; in assay [2], inactive: 0.961.

For SLEKSYELPDG [ACTA1_Y242], the enrichment score with SHP2 C-SH2 domain E139D was inactive: 0.586; in assay [1] it was inactive: 0.606; in the assay with SHP2 N-SH2 domain L43F, inactive: 0.611; with SHP2 N-SH2 domain T42A, inactive: 0.594; with SHP2 N-SH2 domain T52S, inactive: 0.587; in assay [2] it was inactive: 0.651.

For ILTLKYPIERG [ACTA1_Y71_H75R], the enrichment score in the assay with SHP2 C-SH2 domain E139D was inactive: 1.53; in assay [1] it was inactive: 1.13; with SHP2 N-SH2 domain L43F, inactive: 1.65; with SHP2 N-SH2 domain T42A, inactive: 1.34; with SHP2 N-SH2 domain T52S, inactive: 1.35; in assay [2], inactive: 2.45.

Consider PIFEGYGLPHA [ACTA1_Y171_A172G_YF], for which the enrichment score with SHP2 C-SH2 domain E139D was inactive: 0.659; in assay [1], inactive: 0.689; in the assay with SHP2 N-SH2 domain L43F, inactive: 0.748; with SHP2 N-SH2 domain T42A, inactive: 0.644; with SHP2 N-SH2 domain T52S it was inactive: 0.544; in assay [2], inactive: 0.693.

In the case of ILTLKYPIELG [ACTA1_Y71_H75L], the enrichment score is inactive: 1.57 in the assay with SHP2 C-SH2 domain E139D; inactive: 1.51 in assay [1]; inactive: 1.51 in the assay with SHP2 N-SH2 domain L43F; inactive: 1.51 in the assay with SHP2 N-SH2 domain T42A; inactive: 1.71 with SHP2 N-SH2 domain T52S; inactive: 1.28 in assay [2].

For IHETTYKSIMK [ACTA1_Y281_N282K], the enrichment score in the assay with SHP2 C-SH2 domain E139D was inactive: 1.11; in assay [1] it was inactive: 2.19; in the assay with SHP2 N-SH2 domain L43F, inactive: 1.13; with SHP2 N-SH2 domain T42A it was inactive: 0.921; with SHP2 N-SH2 domain T52S, inactive: 1.05; in assay [2], inactive: 0.989.

LTKQEYDEAGP [ACTA1_Y364_I359L]: the enrichment score with SHP2 C-SH2 domain E139D is inactive: 0.511; in assay [1], inactive: 0.587; with SHP2 N-SH2 domain L43F, inactive: 0.48; with SHP2 N-SH2 domain T42A, inactive: 0.407; in the assay with SHP2 N-SH2 domain T52S, inactive: 0.423; in assay [2], inactive: 0.504.

In the case of IRKVLYANNVM [ACTA1_Y296_D294V], the enrichment score was inactive: 0.719 in the assay with SHP2 C-SH2 domain E139D; inactive: 0.857 in assay [1]; inactive: 0.818 in the assay with SHP2 N-SH2 domain L43F; inactive: 1.54 with SHP2 N-SH2 domain T42A; inactive: 0.815 in the assay with SHP2 N-SH2 domain T52S; inactive: 0.94 in assay [2].

Turning to KEKLCYVALDF [ACTA1_Y220], the enrichment score with SHP2 C-SH2 domain E139D is inactive: 1.16; in assay [1], inactive: 1.42; with SHP2 N-SH2 domain L43F, active: 8.88; in the assay with SHP2 N-SH2 domain T42A, active: 10.2; with SHP2 N-SH2 domain T52S it was active: 7.81; in assay [2], active: 5.39.

In the case of DDLTDYLMKIL [ACTA1_Y190_R185D], the enrichment score with SHP2 C-SH2 domain E139D is inactive: 1.11; in assay [1] it was inactive: 1.11; with SHP2 N-SH2 domain L43F, inactive: 1.18; with SHP2 N-SH2 domain T42A it was inactive: 0.882; with SHP2 N-SH2 domain T52S, inactive: 1.15; in assay [2] it was inactive: 0.94.

As to LTELGYSFVTT [ACTA1_Y200_R198L], the enrichment score with SHP2 C-SH2 domain E139D is inactive: 0.52; in assay [1], inactive: 2.34; with SHP2 N-SH2 domain L43F, inactive: 1.75; with SHP2 N-SH2 domain T42A, inactive: 2.71; with SHP2 N-SH2 domain T52S it was inactive: 0.952; in assay [2], inactive: 0.89.

In the case of SLEKSYKLPDG [ACTA1_Y242_E243K], the enrichment score was inactive: 0.697 in the assay with SHP2 C-SH2 domain E139D; inactive: 0.64 in assay [1]; inactive: 0.662 in the assay with SHP2 N-SH2 domain L43F; inactive: 0.649 with SHP2 N-SH2 domain T42A; inactive: 0.725 with SHP2 N-SH2 domain T52S; inactive: 0.639 in assay [2].

In the case of HNVPIYEGFAL [ACTA1_Y168_YF], the enrichment score was inactive: 0.998 in the assay with SHP2 C-SH2 domain E139D; inactive: 0.876 in assay [1]; inactive: 1.11 with SHP2 N-SH2 domain L43F; inactive: 0.842 in the assay with SHP2 N-SH2 domain T42A; inactive: 1.05 with SHP2 N-SH2 domain T52S; inactive: 1.06 in assay [2].

Regarding PIYEGYALPHA [ACTA1_Y171], the enrichment score is inactive: 0.677 with SHP2 C-SH2 domain E139D; inactive: 0.711 in assay [1]; inactive: 0.711 in the assay with SHP2 N-SH2 domain L43F; inactive: 0.638 in the assay with SHP2 N-SH2 domain T42A; inactive: 0.771 with SHP2 N-SH2 domain T52S; inactive: 0.788 in assay [2].

As to IHETTYNSIMK [ACTA1_Y281], the enrichment score in the assay with SHP2 C-SH2 domain E139D was inactive: 0.828; in assay [1] it was inactive: 1.59; with SHP2 N-SH2 domain L43F, inactive: 0.812; in the assay with SHP2 N-SH2 domain T42A it was inactive: 0.837; with SHP2 N-SH2 domain T52S it was inactive: 0.711; in assay [2], inactive: 1.03.

With RDLTDYLMKIL [ACTA1_Y190], the enrichment score with SHP2 C-SH2 domain E139D is inactive: 2.2; in assay [1], inactive: 2.23; with SHP2 N-SH2 domain L43F, inactive: 2.22; with SHP2 N-SH2 domain T42A, inactive: 2.36; with SHP2 N-SH2 domain T52S it was inactive: 2.28; in assay [2], inactive: 2.21.

As to HNMPIYEGFAL [ACTA1_Y168_V165M_YF], the enrichment score with SHP2 C-SH2 domain E139D was inactive: 1.42; in assay [1] it was inactive: 0.796; with SHP2 N-SH2 domain L43F it was inactive: 1.14; in the assay with SHP2 N-SH2 domain T42A it was inactive: 1.12; with SHP2 N-SH2 domain T52S it was inactive: 1.16; in assay [2], inactive: 1.04.
